# Laboratory results as given in publication PMC4336329 (PLoS ONE, 2015).
# Among all 310,000 compounds or so, about 2,200 (0.71%) showed an effect of 50% or more. The effect is printed as a negative number. The list shows a part of the results.
# Target: human ether-à-go-go-related gene (hERG) potassium channel (human, UniProt Q12809)
# Assay: primary screen, population patch clamp on CHO cells stably expressing hERG
# Sequence of human ether-à-go-go-related gene (hERG) potassium channel (Q12809 whole entry, looked up): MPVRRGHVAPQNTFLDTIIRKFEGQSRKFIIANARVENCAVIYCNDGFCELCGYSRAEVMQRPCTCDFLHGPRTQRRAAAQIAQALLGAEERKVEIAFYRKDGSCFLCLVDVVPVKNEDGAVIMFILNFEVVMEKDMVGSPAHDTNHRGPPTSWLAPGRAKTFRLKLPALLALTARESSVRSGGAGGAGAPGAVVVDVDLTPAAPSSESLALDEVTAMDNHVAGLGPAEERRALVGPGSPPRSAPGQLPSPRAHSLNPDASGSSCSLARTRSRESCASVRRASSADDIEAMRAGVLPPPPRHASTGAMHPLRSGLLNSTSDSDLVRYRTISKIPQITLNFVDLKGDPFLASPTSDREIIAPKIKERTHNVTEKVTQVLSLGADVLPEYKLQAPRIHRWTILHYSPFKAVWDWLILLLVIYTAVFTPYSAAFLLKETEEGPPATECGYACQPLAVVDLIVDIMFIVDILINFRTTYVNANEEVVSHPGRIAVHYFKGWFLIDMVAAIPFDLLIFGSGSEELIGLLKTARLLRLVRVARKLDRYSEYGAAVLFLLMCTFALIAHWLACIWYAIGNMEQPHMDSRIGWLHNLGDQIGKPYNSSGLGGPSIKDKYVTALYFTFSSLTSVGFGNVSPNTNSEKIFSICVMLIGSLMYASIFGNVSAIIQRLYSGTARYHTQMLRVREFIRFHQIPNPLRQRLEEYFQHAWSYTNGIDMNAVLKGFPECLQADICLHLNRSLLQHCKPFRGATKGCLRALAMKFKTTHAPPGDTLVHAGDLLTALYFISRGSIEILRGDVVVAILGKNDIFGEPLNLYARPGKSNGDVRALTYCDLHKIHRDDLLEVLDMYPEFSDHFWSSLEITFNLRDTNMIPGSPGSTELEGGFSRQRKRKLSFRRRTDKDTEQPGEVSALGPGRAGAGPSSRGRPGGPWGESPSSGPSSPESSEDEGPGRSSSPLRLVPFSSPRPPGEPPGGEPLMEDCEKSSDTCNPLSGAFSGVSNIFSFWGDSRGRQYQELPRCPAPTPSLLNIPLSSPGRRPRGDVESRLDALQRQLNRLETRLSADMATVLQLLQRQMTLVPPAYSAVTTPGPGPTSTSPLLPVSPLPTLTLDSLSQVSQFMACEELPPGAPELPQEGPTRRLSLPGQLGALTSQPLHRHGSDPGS
row,SMILES,"hERG current change (%, negative = inhibition) at 1uM"
1,O=C(O)C1CC=CCC1C(=O)Nc1ccc(Oc2ccc(Cl)cc2)cc1 (centres unmarked),13.5%
2,COc1ccc(C(=O)COC(=O)Cc2c[nH]c3ccccc23)c(OC)c1,9.86%
3,COc1ccc(CCNc2oc(COc3ccc(Br)cc3)nc2C#N)cc1OC,1.63%
4,CCCN1CN(c2ccccc2)C(=S)N(c2ccccc2)C1,17%
5,COCCN1C(=O)c2oc3cc(C)c(C)cc3c(=O)c2C1c1ccc(O)cc1 (centres unmarked),18.2%
6,COc1ccc(N2C(=O)NC(=O)/C(=C/c3ccc([N+](=O)[O-])s3)C2=O)cc1,12.9%
7,O=C(Cc1ccc(N(CCCl)CCCl)cc1)NC(Cc1ccc(Cl)cc1)C(=O)O (centres unmarked),10.5%
8,CCn1c(SCC(=O)NCc2ccco2)nnc1-c1ccc(N)cc1,11.5%
9,CCOc1ccc(N(CC(=O)NCCc2ccccc2)C(=O)CCC(=O)Nc2nccs2)cc1,-4.07%
10,COc1cc(CCC(=O)OCC(=O)Nc2cccc(S(N)(=O)=O)c2)cc(OC)c1OC,16.9%
11,O=C(CN1CCCC1c1cccs1)Nc1cccc(S(=O)(=O)N2CCCC2)c1 (centres unmarked),17.6%
12,O=C(N/C=C/c1ccc(Cl)cc1)NCc1ccc(Cl)cc1,6.83%
13,CCC1CCC2(CC1)NC(=O)N(CC(=O)Nc1cccc(S(=O)(=O)N(C)c3ccccc3)c1)C2=O (centres unmarked),0.767%
14,COc1ccc(N(CC(=O)NC2CCCCC2)S(=O)(=O)c2c(C)[nH]c(=O)[nH]c2=O)cc1,15.2%
15,O=C(O)CCc1ccc(S(=O)(=O)N2CCOCC2)cc1,10.4%
16,C=CCn1c(C)nnc1SCC(=O)N1CCN(S(=O)(=O)c2ccccc2)CC1,14.8%
17,NC(=O)C1CCN(C(=O)COc2ccc3c4c(c(=O)oc3c2)CCCC4)CC1,10.2%
18,Cc1ccc(-c2nn(-c3ccccc3)cc2/C=C/C(=O)Nc2nccs2)cc1,10.5%
19,Cc1ccc(S(=O)(=O)NCCNc2ccc([N+](=O)[O-])cc2C(F)(F)F)cc1,7.37%

row,SMILES,"hERG current change (%, negative = inhibition) at 1uM"
1,CCn1nc(C)c(NC(=O)Nc2cccc(Cl)c2Cl)c1C,19.6%
2,Nc1ccccc1C(=O)NCCCN1CCN(c2cccc(Cl)c2)CC1,-49.6%
3,CCOC(=O)c1c2ccccc2[n+]([O-])n1CCO,6.51%
4,Cc1oc2c(c1C(=O)NCCCC(=O)O)CCCC2,10.4%
5,O=C(Nc1cc(S(=O)(=O)Nc2ccccc2Cl)ccc1O)c1sc2cc(Cl)ccc2c1Cl,15.4%
6,Cn1nc(C(=O)Nc2ccc(Cl)cc2)cc1C(=O)Nc1ccc(Cl)cc1,18.6%
7,N#Cc1sc2nc3c(c(-c4ccco4)c2c1N)CCCC3,1.78%
8,Oc1ccccc1-c1cc(-c2ccc3c(c2)OCCO3)n[nH]1,10.5%
9,CC(=O)Nc1ccc(S(=O)(=O)N2CCN(S(=O)(=O)N3CCC(C)CC3)CC2)cc1,12.7%
10,COc1cccc(CNC(=O)CCCCCn2c(=S)[nH]c3ccc(N4CCOCC4)cc3c2=O)c1,5.25%
11,CC(C)Oc1cccc(C(=O)C2CCCN(C(=O)c3csnn3)C2)c1 (centres unmarked),7.94%
12,CC1CCCCN1CC(=O)Nc1ccc2c(c1)OC(F)(F)O2 (centres unmarked),13.7%
13,O=C(NCCCN1CCCCCC1)C1CCCN(S(=O)(=O)c2cccc3nsnc23)C1 (centres unmarked),5.76%
14,Cc1c(NC(=O)Nc2ccccc2)cccc1[N+](=O)[O-],10.3%
15,CCN(CC)CCN1C(=O)c2cccc3cc(N)cc(c23)C1=O,-0.692%
16,O=C(CSc1nnc(-c2ccccc2)o1)NC1CCS(=O)(=O)C1 (centres unmarked),5.79%
17,CCOc1ccc(C(=O)N/N=C/c2c(C)[nH]c(=O)[nH]c2=O)cc1,12.5%
18,NS(=O)(=O)c1ccc(CCNC(=O)Cn2c(=O)c3cccn3c3cccnc32)cc1,14.5%
19,O=C1N(C2CCCC2)C[C@@H]2C[C@@H](c3cccn3-c3ccccn3)N3CCC[C@@]123,-28.9%

row,SMILES,"hERG current change (%, negative = inhibition) at 1uM"
1,C=CCn1c(SCc2ccccc2C#N)nnc1-c1ccccc1O,-16%
2,O=c1c2ccccc2nc(SCc2cc([N+](=O)[O-])cc3c2OCOC3)n1-c1ccccc1,5.2%
3,COc1ccccc1N1C(=O)C2C3C=CC(C3)C2C1=O (centres unmarked),4.19%
4,NC(=O)Nc1ccc(Cl)cc1,7.6%
5,CCn1c(-c2cccnc2Cl)nc2cc(Cl)c(Cl)cc21,-6.16%
6,COc1c(C)cc(C(=O)C2CCCN(C(=O)c3cc(C4CC4)[nH]n3)C2)cc1C (centres unmarked),6.63%
7,Cc1cccc(C(=O)NCC(=O)N2CCC2)c1,11.3%
8,O=C(NCc1ccccc1)C12CC3CC(CC(Br)(C3)C1)C2,9.31%
9,Cc1[nH]n(-c2ccccc2)c(=O)c1N=Nc1ccccc1,7.53%
10,CC(C)(C)c1nnc(NC(=O)c2ccc3c(c2)OCO3)s1,13.1%
11,O=C(NCCc1ccccc1)/C(=C\c1ccccc1)NC(=O)c1ccco1,9.3%
12,Cc1cc(CNC(=S)Nc2ccc(Br)cc2Cl)nn1C,-19%
13,CC(=O)Nc1ccc(C(=O)OCC(=O)c2cccc([N+](=O)[O-])c2)cc1,7.97%
14,CCC(C(=O)NCc1ccc(F)cc1)n1nc(C)n2c(cc3occc32)c1=O (centres unmarked),5.24%
15,Cn1ccc(-c2cc(C(=O)O)c3ccccc3n2)n1,19.3%
16,COc1ccc(-c2nnc(N(C)C(=O)c3ccco3)s2)cc1OC,12.4%
17,O=C1Nc2cccnc2Sc2ccccc21,12.2%
18,O=C1C(Nc2ccccc2)=CC(c2ccc(O)cc2)N1c1ccccc1 (centres unmarked),12.6%
